Test results taken from paper PMC4336329 (PLoS ONE, 2015).
Screen size: about 310,000 compounds; about 2,200 (0.71%) showed an effect of 50% or more. Effects have a minus sign here. Some of the results follow.

Target: human ether-à-go-go-related gene (hERG) potassium channel (human, UniProt Q12809)
Test: primary screen, population patch clamp on CHO cells stably expressing hERG

Sequence of human ether-à-go-go-related gene (hERG) potassium channel (Q12809 whole entry, looked up): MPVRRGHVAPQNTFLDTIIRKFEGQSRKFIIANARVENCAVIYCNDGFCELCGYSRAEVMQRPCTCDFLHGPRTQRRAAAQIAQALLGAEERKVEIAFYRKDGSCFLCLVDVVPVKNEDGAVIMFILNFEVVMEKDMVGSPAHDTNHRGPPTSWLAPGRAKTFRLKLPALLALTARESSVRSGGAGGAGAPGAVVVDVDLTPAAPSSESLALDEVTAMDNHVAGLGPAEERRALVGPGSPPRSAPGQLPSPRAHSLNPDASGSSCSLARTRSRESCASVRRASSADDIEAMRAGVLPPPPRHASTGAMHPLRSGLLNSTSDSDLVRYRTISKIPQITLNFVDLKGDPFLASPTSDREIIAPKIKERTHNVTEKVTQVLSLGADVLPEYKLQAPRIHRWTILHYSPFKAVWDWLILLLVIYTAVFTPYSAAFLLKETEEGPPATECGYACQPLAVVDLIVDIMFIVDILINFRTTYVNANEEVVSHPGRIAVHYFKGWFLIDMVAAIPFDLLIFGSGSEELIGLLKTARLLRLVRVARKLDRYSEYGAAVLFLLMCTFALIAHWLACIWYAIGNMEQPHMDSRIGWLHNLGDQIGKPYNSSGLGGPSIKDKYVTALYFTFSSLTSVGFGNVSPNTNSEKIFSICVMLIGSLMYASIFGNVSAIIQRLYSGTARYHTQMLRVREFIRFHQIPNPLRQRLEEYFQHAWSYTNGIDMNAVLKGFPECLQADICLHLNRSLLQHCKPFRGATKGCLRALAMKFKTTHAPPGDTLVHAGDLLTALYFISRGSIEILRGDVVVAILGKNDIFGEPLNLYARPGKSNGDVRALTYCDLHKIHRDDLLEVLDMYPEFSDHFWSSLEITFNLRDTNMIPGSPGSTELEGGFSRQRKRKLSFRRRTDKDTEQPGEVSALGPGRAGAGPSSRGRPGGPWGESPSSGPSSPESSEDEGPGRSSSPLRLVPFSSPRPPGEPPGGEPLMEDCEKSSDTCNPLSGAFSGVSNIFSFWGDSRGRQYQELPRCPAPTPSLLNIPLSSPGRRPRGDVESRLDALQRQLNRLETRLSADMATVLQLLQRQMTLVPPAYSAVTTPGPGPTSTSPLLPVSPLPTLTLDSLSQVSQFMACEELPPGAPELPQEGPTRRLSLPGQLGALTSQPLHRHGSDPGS

| SMILES | hERG current change (%, negative = inhibition) at 1uM |
| --- | --- |
| Cc1nnc(SCC(=O)NC(=O)Nc2ccc3c(c2)OCCO3)n1N | 7.63% |
| Cc1cc(C)c(S(=O)(=O)N2CCN(c3ccc([N+](=O)[O-])c(-n4nc(C)cc4C)c3)CC2)c(C)c1 | 0.425% |
| CC1CCC(NS(=O)(=O)c2cccc3nsnc23)CC1 (centres unmarked) | 10.5% |
| Cc1nn2c(-c3ccco3)nnc2c2ccccc12 | 2.18% |
| CC(=O)c1cccc(CN2CCN(CCc3ccccc3)C(CCO)C2)c1 (centres unmarked) | -16.4% |
| CCOC(=O)CSc1nc2cc3c(cc2cc1CC)OCCO3 | 7.19% |
| Cl.O=C1CC(=C(c2ccccc2)c2ccccc2)C(=O)N1CCCCN1CCN(c2cccc(Cl)c2)CC1 | 0.674% |
| CC(=O)OC1C2CCC1C([NH+]1CCCC1)CC2.[Cl-] (centres unmarked) | 10.6% |
| CCOc1ccc(CNC(=O)Cn2ccc3cc(S(=O)(=O)N4CCCC4)ccc32)cc1 | 14.8% |
| C=CCc1cccc(/C=N/c2nc3ccccc3n2CC)c1O | 7.15% |
| Cc1nn2c(NCc3ccccn3)cc(C(C)(C)C)nc2c1-c1ccccc1 | 8.2% |
| COC(=O)c1ccc(/C=N/OCC(=O)NCc2ccc(F)cc2)cc1 | 3.32% |
| CN(C)c1nc(NCc2ccccc2)nc(SCC(N)=O)n1 | 9.4% |
| COc1ccc(C2=NS(=O)(=O)N(C)C(C(=O)Nc3cc(OC)c(OC)c(OC)c3)=C2)cc1 | 6.75% |
| O=C(Nc1ccccc1N1CCOCC1)c1ccc2ccccc2c1 | -2.57% |
| Cc1ccccc1N1C(=O)NC(=O)/C(=C\c2cc(C)n(C)c2C)C1=O | 10.7% |
| Cn1c(SCC(=O)Nc2sccc2C#N)nnc1-c1ccccc1 | 12% |
| CCOc1ccc(S(=O)(=O)N(C)c2ccc(OCC(=O)NCc3cccnc3)cc2)cc1 | 8.84% |
| CC1CCCN(C(=O)c2ccc(CNc3c(N4CCCCC4)c(=O)c3=O)cc2)C1 (centres unmarked) | 7.1% |

| SMILES | hERG current change (%, negative = inhibition) at 1uM |
| --- | --- |
| COc1ccccc1CNC(=O)c1ccc(OC(C)C)cc1 | 19.4% |
| COC(=O)C1=C(C)OC(N)=C(C#N)C1C1CCCCC1 (centres unmarked) | 13.9% |
| COc1ccc(NS(=O)(=O)c2cccc(N/C(=N\S(=O)(=O)c3ccccc3)c3ccc(F)cc3)c2)cc1 | 6.56% |
| CC(=O)Nc1ccc(C2=NNC(=Nc3cccc(S(=O)(=O)N(C)C)c3)SC2)cc1 | 10.8% |
| COc1ccc(CNC(=O)C2CCC(CNc3c(N4CCCCC4)c(=O)c3=O)CC2)cc1 (centres unmarked) | 10.7% |
| Cc1noc(C)c1CSCC(=O)Nc1ccc(S(=O)(=O)C(F)F)cc1 | -2.84% |
| COc1ccc(C)cc1S(=O)(=O)N(C)CC(=O)N1CCC(C(N)=O)CC1 | 9.99% |
| Cc1nnc(SCC(=O)Nc2ccccc2F)n1-c1ccc(F)cc1 | 11.2% |
| Cc1ccc(NC(=O)C2CC(=O)N(Cc3ccco3)C2)cc1 (centres unmarked) | 1.48% |
| CCN(CC)c1ncc(C#N)c(N)n1 | 9.78% |
| O=C(NCCc1ccccc1Cl)C1CCC(=O)N(CC2CCCCC2)C1 (centres unmarked) | 0.308% |
| COc1cc(NC(=O)C2CCN(c3cnccn3)CC2)cc(OC)c1 | 0.451% |
| COc1cccc(-c2cc(=O)c3cc(NC(=O)c4ccc(Cl)cc4)ccc3[nH]2)c1 | 16.8% |
| COc1ccc(-c2noc(N(C)CC(=O)Nc3cccc(C(F)(F)F)c3)n2)cc1 | 12.5% |
| COc1ccc(N2C(=O)C3CCCN3C2=S)cc1 (centres unmarked) | 19.9% |
| COc1ccccc1OCC(=O)Nc1ccc2c(c1)OCO2 | 3.08% |
| Cc1cc(NCCc2ccc(Cl)cc2)n2ncnc2n1 | -17.2% |
| CCCOc1ccc(N2C(=O)CC(SC(=NCC)NCC)C2=O)cc1 (centres unmarked) | 10.1% |
| NC(=O)c1cnn2c(-c3cccc(C(F)(F)F)c3)ccnc12 | 6.39% |

| SMILES | hERG current change (%, negative = inhibition) at 1uM |
| --- | --- |
| Cc1c(N(C)CS(=O)(=O)O)c(=O)n(-c2ccccc2)n1C.[Na] | 15.8% |
| O=C(CN1CCN(c2ccccn2)CC1)Nc1cccc(S(=O)(=O)N2CCOCC2)c1 | 2.34% |
| CCC(C)N1CCN(C(=O)Cc2ccccc2)CC1.O=C(O)C(=O)O (centres unmarked) | 7.51% |
| O=C(/C=C/c1ccccc1)NCCS(=O)(=O)N1CCN(c2ccc(F)cc2)CC1 | -1.58% |
| Oc1ccc2ccccc2c1C=NC1CCCCC1 | 7.74% |
| CCC(Sc1nc(N)c(NC(=O)c2ccco2)c(=O)[nH]1)C(=O)O (centres unmarked) | 13.1% |
| Cc1c(C(=O)N(Cc2ccccc2)Cc2cccnc2)cnn1-c1ccc(F)cc1 | -4.77% |
| Cc1ccc(NC(=O)C(C)c2cccc(C(=O)c3ccccc3)c2)cc1 (centres unmarked) | -0.108% |
| CN1CCN(CCCCOc2ccc(F)cc2)CC1 | 5.88% |
| Cc1ccccc1OCCn1cc(C(=O)C(=O)N2CCOCC2)c2ccccc21 | 6.91% |
| CC(OC(=O)CN1C(=O)NC2(CCCC2)C1=O)C(=O)Nc1cccc(Cl)c1Cl (centres unmarked) | 3.71% |
| CSc1nnnn1-c1c(C)cc(C)cc1C | 12.2% |
| COCc1nnc(NC(=O)CC(c2ccccc2)c2ccccc2)s1 | 11.1% |
| Cc1cc(C)cc(C(=O)NC2CC(C)(C)NC(C)(C)C2)c1 | 16% |
| COc1ccc(NC(=O)Cn2cnc3ccccc3c2=O)cc1OC | 11.7% |
| CS(=O)(=O)N1N=C(c2ccc(Br)cc2)CC1c1ccc2c(c1)OCO2 (centres unmarked) | 2.96% |
| O=S(=O)(CCN1CCOCC1)c1ccc(Oc2ccc(S(=O)(=O)CCN3CCOCC3)cc2)cc1 | 12.2% |
| COc1cc(C2/C(=C(\O)c3ccc4c(c3)OCCO4)C(=O)C(=O)N2CCN2CCOCC2)cc(OC)c1OC (centres unmarked) | 16.5% |
